Data taken from the supplement of paper PMC10441789.
This is one part of the list. Antibody binding of pooled human sera (four to six donors per pool; dilution not stated) to peptides of the Trypanosoma cruzi antigen TSSA on microarrays. Quantile-normalised fluorescence in arbitrary units, mean of duplicate arrays; higher = more binding. No active / inactive call. The uninfected pools are read here as the healthy donors of the same country. The strongest signals lie near the top of the scale (about 60,000).

Key:
Experiment in all cases: antibody binding signal (normalised fluorescence) (arbitrary fluorescence units); higher = stronger serum antibody binding to peptide
[1] = test system: pooled sera of chronic Chagas disease patients, Argentina
Description: (§1)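 Microarray of 15-residue peptides over residues 30-55 of Trypanosoma cruzi TSSAII, each with 1 to 10 substitutions at naturally variable positions, probed with one serum pool per country.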

[2] = test system: pooled sera of chronic Chagas disease patients, Bolivia
Description: as §1

[3] = test system: pooled sera of chronic Chagas disease patients, Brazil
Description: as §1

[4] = test system: pooled sera of chronic Chagas disease patients, Colombia
Description: as §1

[5] = test system: pooled sera of chronic Chagas disease patients, Mexico
Description: as §1

[6] = test system: pooled sera of chronic Chagas disease patients, USA
Description: as §1

[7] = test system: pooled sera of uninfected people, Argentina
Description: as §1

[8] = test system: pooled sera of uninfected people, Bolivia
Description: as §1

[9] = test system: pooled sera of uninfected people, Brazil
Description: as §1

[10] = test system: pooled sera of uninfected people, Colombia
Description: as §1

[11] = test system: pooled sera of uninfected people, Mexico
Description: as §1

[12] = test system: pooled sera of uninfected people, USA
Description: as §1

Sequence | antibody binding signal [1] | antibody binding signal [2] | antibody binding signal [3] | antibody binding signal [4] | antibody binding signal [5] | antibody binding signal [6] | antibody binding signal [7] | antibody binding signal [8] | antibody binding signal [9] | antibody binding signal [10] | antibody binding signal [11] | antibody binding signal [12]
SGKENKAAAGGAPSQ | 3610 | 883 | 19700 | 8540 | 4650 | 21700 | 5650 | 1260 | 126 | 246 | 203 | 146
PSGKEKKPATGETPS | 26500 | 8790 | 19100 | 4820 | 6310 | 18100 | 602 | 691 | 126 | 268 | 784 | 258
PPSGKDKKAAAGETP | 938 | 368 | 666 | 1320 | 34300 | 2520 | 185 | 434 | 94.9 | 302 | 88.7 | 111
STPPSGTDKKTATGG | 34500 | 4300 | 35000 | 8790 | 28400 | 8380 | 838 | 142 | 198 | 205 | 648 | 256
STPPSGKENKAAAGE | 41100 | 31700 | 14300 | 379 | 6460 | 5110 | 2940 | 1990 | 343 | 1640 | 226 | 297
DKKPATGETPSPSGA | 29000 | 24700 | 28800 | 141 | 144 | 22300 | 201 | 401 | 265 | 213 | 1480 | 477
TDNKAATGGTPSPPG | 357 | 949 | 309 | 295 | 456 | 184 | 163 | 250 | 332 | 539 | 132 | 92.1
PSGKDNKPATGETPS | 38000 | 28400 | 34200 | 1820 | 2170 | 26300 | 549 | 1170 | 462 | 229 | 1760 | 181
GKEKKTAAGGTPSQS | 785 | 278 | 206 | 4160 | 758 | 1820 | 171 | 93.5 | 299 | 117 | 237 | 124
TSSTPPSGTDKKTAT | 33900 | 4840 | 33300 | 5290 | 37800 | 5250 | 396 | 103 | 146 | 147 | 729 | 170
TDKKAAAGEAPSQPG | 7520 | 15300 | 36300 | 357 | 277 | 11400 | 101 | 202 | 142 | 102 | 126 | 129
GTEKKPAAGETPSPP | 1140 | 442 | 3840 | 727 | 1300 | 2710 | 153 | 978 | 2220 | 150 | 399 | 1020
KKAATGEAPSPSGAS | 6280 | 8720 | 18200 | 196 | 203 | 17100 | 511 | 177 | 109 | 249 | 96.7 | 275
TDNKPATGETPSQPG | 35900 | 30100 | 41300 | 326 | 188 | 27900 | 285 | 809 | 598 | 261 | 1730 | 196
EKKTATGETPSQSGA | 1020 | 799 | 4600 | 381 | 463 | 6670 | 304 | 744 | 272 | 115 | 234 | 746
GTEKKAAAGEAPSPP | 1440 | 283 | 5360 | 846 | 1150 | 11800 | 132 | 910 | 121 | 86.8 | 109 | 99.8
PSGKEKKTAAGGAPS | 6230 | 702 | 6120 | 11300 | 8940 | 6990 | 336 | 154 | 113 | 201 | 117 | 135
GKDKKTAAGEAPSPP | 315 | 223 | 293 | 604 | 700 | 4270 | 136 | 74.2 | 93.2 | 472 | 78.6 | 85.4
TENKTATGGTPSPPG | 28300 | 1050 | 474 | 351 | 417 | 424 | 238 | 168 | 349 | 344 | 339 | 157
DKKPAAGGAPSQPGA | 849 | 1070 | 7160 | 4520 | 329 | 544 | 228 | 215 | 337 | 126 | 159 | 248
PPSGTDNKAATGGTP | 26000 | 36400 | 47000 | 923 | 1120 | 4930 | 582 | 705 | 2200 | 343 | 357 | 289
STPPSGTENKTATGG | 51600 | 47300 | 54000 | 454 | 6780 | 34600 | 3400 | 657 | 595 | 592 | 654 | 523
GKDNKPATGGTPSPP | 1130 | 239 | 989 | 1290 | 1770 | 1820 | 272 | 639 | 171 | 308 | 130 | 123
SGTENKTATGGTPSQ | 36300 | 14500 | 21100 | 876 | 743 | 5650 | 687 | 436 | 275 | 300 | 491 | 181
GKEKKAATGETPSQP | 6120 | 464 | 28600 | 3550 | 7520 | 9940 | 238 | 106 | 289 | 196 | 92.3 | 100

Sequence | antibody binding signal [1] | antibody binding signal [2] | antibody binding signal [3] | antibody binding signal [4] | antibody binding signal [5] | antibody binding signal [6] | antibody binding signal [7] | antibody binding signal [8] | antibody binding signal [9] | antibody binding signal [10] | antibody binding signal [11] | antibody binding signal [12]
ENKAAAGEAPSQSGA | 561 | 21500 | 27600 | 261 | 191 | 14200 | 87.8 | 167 | 137 | 68.7 | 93.6 | 121
KKPAAGGTPSPSGAS | 195 | 243 | 371 | 1640 | 185 | 439 | 278 | 219 | 653 | 136 | 80.6 | 283
GTEKKAAAGEAPSQS | 1720 | 6520 | 7230 | 470 | 698 | 10700 | 105 | 978 | 119 | 94.3 | 97.9 | 138
TDNKPATGGTPSQSG | 786 | 542 | 3470 | 568 | 412 | 321 | 276 | 648 | 453 | 305 | 548 | 200
KKAAAGEAPSPPGAS | 237 | 287 | 1780 | 268 | 165 | 8170 | 308 | 221 | 102 | 145 | 135 | 336
KTATGGTPSQPGASS | 459 | 530 | 584 | 2010 | 396 | 287 | 751 | 141 | 182 | 140 | 1090 | 147
GKDKKAATGETPSQP | 2470 | 412 | 26500 | 3530 | 3700 | 9190 | 235 | 116 | 152 | 187 | 90.2 | 120
TEKKTATGGAPSPSG | 2650 | 407 | 5450 | 4460 | 2160 | 2220 | 388 | 893 | 183 | 144 | 388 | 221
TDNKAATGEAPSPPG | 23100 | 40200 | 37200 | 217 | 206 | 27400 | 152 | 304 | 190 | 112 | 136 | 89.2
DNKAATGEAPSQPGA | 30100 | 45800 | 45800 | 107 | 195 | 27600 | 260 | 150 | 224 | 177 | 222 | 132
KKTATGETPSQSGAS | 511 | 841 | 3300 | 248 | 262 | 5000 | 392 | 311 | 129 | 120 | 284 | 512
PPSGKEKKPATGGAP | 1610 | 433 | 1780 | 1070 | 9890 | 2020 | 491 | 1030 | 104 | 275 | 102 | 244
GKDNKAAAGEAPSQP | 5480 | 7310 | 36100 | 4790 | 4700 | 12100 | 219 | 392 | 122 | 186 | 83.4 | 95.2
PSGTEKKPAAGGTPS | 21800 | 3690 | 15000 | 8900 | 7640 | 7640 | 818 | 394 | 1120 | 376 | 348 | 747
TENKTATGGAPSPSG | 24300 | 926 | 757 | 427 | 444 | 619 | 314 | 204 | 456 | 171 | 549 | 229
GKDNKPATGGAPSPP | 1060 | 2120 | 2450 | 1130 | 1760 | 3040 | 339 | 1130 | 133 | 146 | 178 | 134
PSGTDNKPAAGGTPS | 30500 | 11000 | 45900 | 5290 | 1170 | 7560 | 273 | 841 | 1840 | 753 | 684 | 240
KDKKPATGGAPSQPG | 414 | 1230 | 8950 | 460 | 338 | 678 | 243 | 518 | 96.1 | 94 | 97.3 | 89.3
GKEKKTATGGAPSQS | 3100 | 345 | 1900 | 3120 | 4210 | 3870 | 213 | 110 | 97.9 | 77.8 | 117 | 83.9
KAATGETPSPSGASS | 1340 | 1080 | 12800 | 238 | 2500 | 7700 | 239 | 235 | 170 | 166 | 147 | 991
GKDKKAATGEAPSPP | 14000 | 17900 | 19900 | 1690 | 1750 | 18200 | 245 | 110 | 103 | 235 | 95.7 | 107
KEKKTATGEAPSQPG | 7700 | 11500 | 29900 | 298 | 324 | 13500 | 177 | 82.1 | 117 | 84.5 | 117 | 132
TPPSGKDKKAATGGA | 1610 | 355 | 769 | 1150 | 27500 | 674 | 246 | 492 | 119 | 290 | 94.1 | 254
KENKAATGGTPSPSG | 317 | 277 | 277 | 180 | 242 | 238 | 158 | 105 | 291 | 103 | 85.6 | 140
KDNKTATGGTPSQSG | 409 | 306 | 315 | 1950 | 243 | 523 | 469 | 131 | 187 | 184 | 144 | 197
